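A five-concentration, 48-hour dose response in 96-well plates underlies each endpoint, interpolated linearly between surrounding concentrations. At the GI50, growth is halved.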 Active and inactive are the calls of the source. Cut-off read from the data, not from the text of the source: active = GI50 up to about 1.1 µM and inactive = higher.
What follows are compounds tested on NCI-H322M (assay: NCI anticancer screen, dose series, 48 h).

Row | SMILES | GI50
1 | COc1cc(/C=C2\C(=O)N(c3cc(Cl)ccc3Cl)C(c3ccccc3)S2(=O)=O)cc(OC)c1OC (configuration not stated) | inactive: > 100 µM
2 | CN(C)c1cccc(-c2cc(O)c3ccccc3n2)c1 | inactive: 31.4 µM
3 | COc1ccc(-c2ccccc2)c2[nH]c3c(c12)CCNC3=O | inactive: > 100 µM
4 | O=C(NO)c1ccc([N+](=O)[O-])cc1 | inactive: 42.3 µM
5 | CCN(CC)C(=O)C1=C(C)NC(C)=C(C(=O)N(CC)CC)C1 | inactive: > 100 µM
6 | CCC12C=CCN3CCC4(C(=C(C(=O)OC)C1)Nc1ccccc14)[C@H]32 (some centres not stated) | inactive: 40.3 µM
7 | C[C@]1(CO)CCC[C@@]2(C)C1CC[C@H]1CC3C[C@]12CC[C@]3(C)O (some centres not stated) | inactive: > 100 µM
8 | CCOP(=O)(OCC)C1CC(O)C(=O)N1 (configuration not stated) | inactive: > 100 µM
9 | CC1=C(C(=O)Nc2cccc(C(F)(F)F)c2)C(c2ccccc2F)C(C(=O)Nc2cccc(C(F)(F)F)c2)=C(C)N1 | inactive: 2.35 µM
10 | CC[C@H](C)C1=C(OC(C)=O)[N@+]2([O-])Oc3ccc(-c4c(O)c(O)c(-c5ccc(OC(C)=O)cc5)c(OC(C)=O)c4OC(C)=O)cc3O[C@]2([C@@H](C)CC)C(=O)N1O | inactive: 41.6 µM
11 | O=C1NC(=O)C2C(=O)NC(=O)C1C2Cc1ccco1 (configuration not stated) | inactive: > 100 µM
12 | COC(=O)c1ccc(NC(=O)c2cc(OC)c(OC)c(OC)c2)cc1 | inactive: 1.92 µM
13 | COc1ccc(OC)c(/C=N/N=C(\N)NO)c1 | inactive: 9.86 µM
14 | COc1ccc(OC)c2sc(N3C(=O)/C(=C/c4ccccc4S)N=C3c3ccccc3)nc12 | inactive: > 100 µM
15 | C[C@H](NC(=O)C(C)(Cc1ccc(O)cn1)NC(=O)c1ccccc1)c1ccccc1 (some centres not stated) | inactive: > 100 µM
16 | C[C@@H](Cl)[C@H]1CCCN(Cc2ccc(Br)cc2)C1 | inactive: > 12.5 µM
17 | OC(c1ccc(F)cc1)C(F)(F)c1nc2ccccc2o1 (configuration not stated) | inactive: > 100 µM
18 | O=C(CSCC(=O)N/N=C/c1ccccc1)N/N=C\c1ccccc1 | inactive: > 100 µM
19 | COC(=O)c1c(O)ccc2c1c1c(n2Cc2ccccc2OC)C(=O)c2ccccc2C1=O | inactive: 24.8 µM
20 | O=C(CN1CCCCC1)c1ccc2c(c1)Sc1ccccc1O2 | inactive: 14.6 µM
21 | COc1cc2c(cc1OC)C1CN3CCCC3C(O)C1c1cc(OC)c(OC)cc1-2 (configuration not stated) | inactive: > 100 µM
22 | Nc1ccc(-c2nc3ccccc3s2)cc1 | inactive: 35.3 µM
23 | CC1=NOC(=O)/C1=C/c1ccccc1O | inactive: > 100 µM
24 | O=[N+]([O-])c1ccc(C(Nc2ccccc2)P(c2ccccc2)c2ccccc2)cc1 (configuration not stated) | inactive: > 100 µM

Row | SMILES | GI50
25 | O=C1NC(N2CCOCC2)=N/C1=C\c1ccccc1O | inactive: > 100 µM
26 | O=C(O)c1ccc(/N=C(\C(=N\c2ccc(C(=O)O)cc2)c2ccccc2)c2ccccc2)cc1 | inactive: > 100 µM
27 | COC(=O)C(C)NP(=O)(N1CC1)N1CC1 (configuration not stated) | inactive: > 100 µM
28 | Cn1ncc2c(c1=O)Nc1ccccc1S2(=O)=O | inactive: > 100 µM
29 | Clc1cc(-c2ccccc2)nc2ccccc12 | inactive: 73.6 µM
30 | CC(C)CC[C@H](O)[C@@H](C)[C@H]1[C@@H](OC2OC(C)C(O)C(O)C2O)C[C@H]2[C@@H]3CC=C4C[C@@H](O)CC[C@]4(C)[C@H]3[C@@H](O)C[C@]12C (some centres not stated) | inactive: 26.3 µM
31 | O=C(CCN1CCCCC1)c1csc2ccccc12 | inactive: > 100 µM
32 | CCOP(=O)(OCC)/C(C#N)=C/c1ccccn1 | inactive: > 100 µM
33 | C[C@@H](NC(=O)Cn1c(Cl)nc2ccccc21)c1ccccc1 | inactive: > 100 µM
34 | CC1C[C@]2(C)C(=O)Nc3ccccc3[C@@H]2Nc2ccccc21 (some centres not stated) | inactive: 22 µM
35 | Cc1cc(CS(=O)(=O)/C=C/c2ccccc2[N+](=O)[O-])c(CS(=O)(=O)/C=C/c2ccccc2[N+](=O)[O-])cc1C | inactive: > 87.7 µM
36 | CC1=NN(c2ccccc2)C(=O)/C1=C\c1ccc([N+](=O)[O-])cc1 | inactive: 26.7 µM
37 | Cc1ccc(C(=O)C#Cc2cnc(O)nc2O)cc1 | inactive: 15.4 µM
38 | Cc1cccc2c1Sc1ccccc1C2NC(=O)CCN(C)C (configuration not stated) | inactive: > 100 µM
39 | N#CC(C(=O)C(=O)Nc1ccc(Cl)c(Cl)c1)c1ccc(Cl)cc1 (configuration not stated) | inactive: > 100 µM
40 | COc1ccc(C2CCc3cc4c(cc3/C2=N/OC(C)=O)OCO4)cc1OC (configuration not stated) | inactive: 40.6 µM
41 | COc1ccc(C(O)/C(=C/n2ccnc2)c2ccccc2)cc1OC (configuration not stated) | inactive: > 100 µM
42 | Cc1ccc(NC(=O)c2cc3cc(/N=N/c4ccc(Br)cc4)ccc3oc2=O)cc1 | inactive: 71.3 µM
43 | c1ccc(OCc2nnc(CCCCCCCCc3nnc(COc4ccccc4)o3)o2)cc1 | inactive: > 100 µM
44 | C=C[C@@]1(C)CC(=O)[C@]2(O)[C@@]3(C)[C@@H](O)CCC(C)(C)[C@@H]3[C@H](O)[C@@H](OC(C)=O)[C@@]2(C)O1 | inactive: > 100 µM
45 | CCCCCCCCCCCC1=NCCN1 | inactive: > 100 µM
46 | Brc1cccc(/C=N/C23CC4CC(CC(C4)C2)C3)c1 | inactive: > 100 µM
47 | CC1(C)[C@H]2CC[C@@]13C(=O)N1C(=O)O[C@@H]([C@H]1Cl)C(Cl)(COCc1ccccc1)C(=O)OCCO[C@H]3C2 (some centres not stated) | inactive: > 100 µM
